Results as given in patent US20250145587A1, “BROMODOMAIN INHIBITORS” (AbbVie Inc., priority 2016, published 2025).

Target: BRD4 (BDII_E352-M457) (Homo sapiens, UniProt O60885)
Assay: TR-FRET bromodomain binding assay, BRD4 second bromodomain (BDII)
Experimental: A time-resolved fluorescence resonance energy transfer (TR-FRET) assay was used to determine the affinities of compounds of the Examples listed in Table 1 for each bromodomain of BRD4. […] An Alexa647-labeled BET-inhibitor was used as the fluorescent probe in the assay.
(§1) Compound dilution series were prepared in DMSO via an approximately 3-fold serial dilution. Compound dilutions were added directly into white, low-volume assay plates (Perkin Elmer Proxiplate 384 Plus #6008280) using a Labcyte Echo in conjunction with Labcyte Access and Thermo Multidrop CombinL robotics. Compounds were then suspended in eight microliters (μL) of assay buffer (20 mM Sodium Phosphate, pH 6.0, 50 mM NaCl, 1 mM Ethylenediaminetetraacetic acid disodium salt dihydrate, 0.01% Triton X-100, 1 mM DL-Dithiothreitol) containing His-tagged bromodomain, Europium-conjugated anti-His antibody (Invitrogen PV5596) and Alexa-647-conjugated probe.
After a one-hour equilibration at room temperature, TR-FRET ratios were determined using an Envision multilabel plate reader (Ex 340, Em 495/520).
TR-FRET data were normalized to the means of 24 no-compound controls (“high”) and 8 controls containing 1 μM un-labeled probe (“low”). Percent inhibition was plotted as a function of compound concentration and the data were fit with the 4 parameter logistic equation to obtain IC50s. Inhibition constants (Ki) were calculated from the IC50s, probe Kd and probe concentration.
Compound dilution series for Compounds A-E were prepared in DMSO via an approximately 3-fold serial dilution from 0.47 mM to 7.8 nM.
as §1, with “Compound” for “Compound dilution series were prepared in DMSO via an approximately 3-fold serial dilution. Compound”
The final concentration of 1× assay mixture contained 2% DMSO, 8 nM His-tagged bromodomain, 1 nM Europium-conjugated anti-His-tag antibody and 100 nM or 30 nM probe (for BDI or BDII, respectively) and compound concentration in the range of […]-150 μM.
TR-FRET data were normalized to the means of 24 no-compound controls (“high”) and 8 controls containing 1 μM un-labeled probe (“low”). Percent inhibition was plotted as a function of compound concentration and the data were fit with the 4 parameter logistic equation to obtain IC50s. Inhibition constants (Ki) were calculated from the IC50s, probe Kd and probe concentration. Typical Z′ values were between 0.65 and 0.75. The minimum significant ratio was determined to evaluate assay reproducibility (Eastwood et al., (2006) J Biomol Screen, 11: 253-261). The MSR was determined to be 2.03 for BDI and 1.93 for BDII, and a moving MSR (last six run MSR overtime) for both BDI and BDII was typically <3.

Compound | Ki [nM]
CCS(=O)(=O)c1ccc(Oc2c(C)cc(F)cc2C)c(-c2cn(C)c(=O)cc2O[C@H]2CC[C@H](N3CCCC3=O)CC2)c1 [Example 19, 5-[5-(ethanesulfonyl)-2-(4-fluoro-2,6-dimethylphenoxy)phenyl]-1-methyl-4-{[trans-4-(2-oxopyrrolidin-1-yl)cyclohexyl]oxy}pyridin-2(1H)-one] | 2.91
CCC(=O)N[C@H]1CC[C@H](Oc2cc(=O)n(C)cc2-c2cc(S(=O)(=O)CC)ccc2Oc2c(C)cccc2C)CC1 [Example 7, N-[trans-4-({5-[2-(2,6-dimethylphenoxy)-5-(ethanesulfonyl)phenyl]-1-methyl-2-oxo-1,2-dihydropyridin-4-yl}oxy)cyclohexyl]propanamide] | 9.67
CCS(=O)(=O)c1ccc(Oc2c(C)cccc2C)c(-c2cn(C)c(=O)cc2O[C@H]2CC[C@H](NC(=O)OC)CC2)c1 [Example 3, methyl [trans-4-({5-[2-(2,6-dimethylphenoxy)-5-(ethanesulfonyl)phenyl]-1-methyl-2-oxo-1,2-dihydropyridin-4-yl}oxy)cyclohexyl]carbamate] | 3.13
COC(=O)N[C@H]1CC[C@H](Oc2cc(=O)n(C)cc2-c2cc(CS(C)(=O)=O)ccc2Oc2c(C)cc(F)cc2C)CC1 [Example 18, methyl {trans-4-[(5-{2-(4-fluoro-2,6-dimethylphenoxy)-5-[(methanesulfonyl)methyl]phenyl}-1-methyl-2-oxo-1,2-dihydropyridin-4-yl)oxy]cyclohexyl}carbamate] | 15.1
CCS(=O)(=O)c1ccc(Oc2c(C)cc(F)cc2C)c(-c2cn(C)c(=O)cc2O[C@H]2CC[C@H](N(C)C(C)=O)CC2)c1 [Example 20, N-[trans-4-({5-[5-(ethanesulfonyl)-2-(4-fluoro-2,6-dimethylphenoxy)phenyl]-1-methyl-2-oxo-1,2-dihydropyridin-4-yl}oxy)cyclohexyl]-N-methylacetamide] | 3.3
CCS(=O)(=O)c1ccc(Oc2c(C)cccc2C)c(-c2cn(C)c(=O)cc2O[C@H]2CC[C@H](NC(=O)C3CC(F)(F)C3)CC2)c1 [Example 13, N-[trans-4-({5-[2-(2,6-dimethylphenoxy)-5-(ethanesulfonyl)phenyl]-1-methyl-2-oxo-1,2-dihydropyridin-4-yl}oxy)cyclohexyl]-3,3-difluorocyclobutane-1-carboxamide] | 3.06
CCS(=O)(=O)c1ccc(Oc2c(C)cccc2C)c(-c2cn(C)c(=O)cc2O[C@H]2CC[C@H](NC(=O)C3CC3)CC2)c1 [Example 11, N-[trans-4-({5-[2-(2,6-dimethylphenoxy)-5-(ethanesulfonyl)phenyl]-1-methyl-2-oxo-1,2-dihydropyridin-4-yl}oxy)cyclohexyl]cyclopropanecarboxamide] | 12.5
CCS(=O)(=O)Nc1cnc(Oc2c(C)cc(F)cc2C)c(-c2cn(C)c(=O)cc2O[C@H]2CC[C@H](NC(=O)OC)CC2)c1 [Example 17, methyl [trans-4-({5′-[(ethanesulfonyl)amino]-2′-(4-fluoro-2,6-dimethylphenoxy)-1-methyl-6-oxo[1,6-dihydro[3,3′-bipyridine]]-4-yl}oxy)cyclohexyl]carbamate] | 1.75
CCS(=O)(=O)c1ccc(Oc2c(C)cccc2C)c(-c2cn(C)c(=O)cc2O[C@H]2CC[C@H](NC(=O)C3(C)CC3)CC2)c1 [Example 10, N-[trans-4-({5-[2-(2,6-dimethylphenoxy)-5-(ethanesulfonyl)phenyl]-1-methyl-2-oxo-1,2-dihydropyridin-4-yl}oxy)cyclohexyl]-1-methylcyclopropane-1-carboxamide] | 41.8
CCS(=O)(=O)c1ccc(Oc2c(C)cccc2C)c(-c2cn(C)c(=O)cc2O[C@H]2CC[C@H](NC(=O)C(C)(C)C)CC2)c1 [Example 8, N-[trans-4-({5-[2-(2,6-dimethylphenoxy)-5-(ethanesulfonyl)phenyl]-1-methyl-2-oxo-1,2-dihydropyridin-4-yl}oxy)cyclohexyl]-2,2-dimethylpropanamide] | 25.7
CCS(=O)(=O)c1ccc(Oc2c(C)cccc2C)c(-c2cn(C)c(=O)cc2O[C@H]2CC[C@H](NC(=O)C3(C)COC3)CC2)c1 [Example 12, N-[trans-4-({5-[2-(2,6-dimethylphenoxy)-5-(ethanesulfonyl)phenyl]-1-methyl-2-oxo-1,2-dihydropyridin-4-yl}oxy)cyclohexyl]-3-methyloxetane-3-carboxamide] | 2.26
CCS(=O)(=O)Nc1ccc(Oc2c(C)cc(C(C)(C)O)cc2C)c(-c2cn(C)c(=O)cc2O[C@H]2CC[C@H](NC(C)=O)CC2)c1 [Example 14, N-{trans-4-[(5-{5-[(ethanesulfonyl)amino]-2-[4-(2-hydroxypropan-2-yl)-2,6-dimethylphenoxy]phenyl}-1-methyl-2-oxo-1,2-dihydropyridin-4-yl)oxy]cyclohexyl}acetamide] | 0.504
CCS(=O)(=O)c1ccc(Oc2c(C)cccc2C)c(-c2cn(C)c(=O)cc2O[C@H]2CC[C@H](NS(C)(=O)=O)CC2)c1 [Example 4, N-[trans-4-({5-[2-(2,6-dimethylphenoxy)-5-(ethanesulfonyl)phenyl]-1-methyl-2-oxo-1,2-dihydropyridin-4-yl}oxy)cyclohexyl]methanesulfonamide] | 10.4
CCS(=O)(=O)c1ccc(Oc2c(C)cccc2C)c(-c2cn(C)c(=O)cc2O[C@H]2CC[C@@H](NC(C)=O)CC2)c1 [Example 2, N-[cis-4-({5-[2-(2,6-dimethylphenoxy)-5-(ethanesulfonyl)phenyl]-1-methyl-2-oxo-1,2-dihydropyridin-4-yl}oxy)cyclohexyl]acetamide] | 22.7
CCS(=O)(=O)c1ccc(Oc2c(C)cccc2C)c(-c2cn(C)c(=O)cc2O[C@H]2CC[C@H](NC(=O)OC(C)(C)C)CC2)c1 [Example 5, tert-butyl [trans-4-({5-[2-(2,6-dimethylphenoxy)-5-(ethanesulfonyl)phenyl]-1-methyl-2-oxo-1,2-dihydropyridin-4-yl}oxy)cyclohexyl]carbamate] | 13.5
CCS(=O)(=O)Nc1ccc(Oc2c(C)cc(C(C)(C)O)cc2C)c(-c2cn(C)c(=O)cc2O[C@H]2CC[C@H](NC(=O)OC)CC2)c1 [Example 15, methyl {trans-4-[(5-{5-[(ethanesulfonyl)amino]-2-[4-(2-hydroxypropan-2-yl)-2,6-dimethylphenoxy]phenyl}-1-methyl-2-oxo-1,2-dihydropyridin-4-yl)oxy]cyclohexyl}carbamate] | 0.508
CCS(=O)(=O)c1ccc(Oc2c(C)cccc2C)c(-c2cn(C)c(=O)cc2O[C@H]2CC[C@H](NC(=O)C(F)(F)F)CC2)c1 [Example 6, N-[trans-4-({5-[2-(2,6-dimethylphenoxy)-5-(ethanesulfonyl)phenyl]-1-methyl-2-oxo-1,2-dihydropyridin-4-yl}oxy)cyclohexyl]-2,2,2-trifluoroacetamide] | 1.53
CCS(=O)(=O)Nc1ccc(Oc2c(C)cc(F)cc2C)c(-c2cn(C)c(=O)cc2O[C@H]2CC[C@H](NC(=O)OC)CC2)c1 [Example 16, methyl {trans-4-[(5-{5-[(ethanesulfonyl)amino]-2-(4-fluoro-2,6-dimethylphenoxy)phenyl}-1-methyl-2-oxo-1,2-dihydropyridin-4-yl)oxy]cyclohexyl}carbamate] | 1.37
CCS(=O)(=O)c1ccc(Oc2c(C)cccc2C)c(-c2cn(C)c(=O)cc2O[C@H]2CC[C@H](NC(C)=O)CC2)c1 [Example 1, N-[trans-4-({5-[2-(2,6-dimethylphenoxy)-5-(ethanesulfonyl)phenyl]-1-methyl-2-oxo-1,2-dihydropyridin-4-yl}oxy)cyclohexyl]acetamide] | 2.55
CCS(=O)(=O)c1ccc(Oc2c(C)cccc2C)c(-c2cn(C)c(=O)cc2O[C@H]2CC[C@H](NC(=O)COC)CC2)c1 [Example 9, N-[trans-4-({5-[2-(2,6-dimethylphenoxy)-5-(ethanesulfonyl)phenyl]-1-methyl-2-oxo-1,2-dihydropyridin-4-yl}oxy)cyclohexyl]-2-methoxyacetamide] | 5.08
